# According to the supplement of paper PMC8728848:
# Some of the results follow.
# B1: Epa13 (Candida glabrata) (protein)
# chain: MGSSHHHHHHSSGLVPRGSHMASDSSENGYAHGCSPSIRAKLKPGLSMEIYSYALRPTDDHCWDSAYLDPMFPRTGYLTHKLLGKAEGIIGPLNFLAKNPACIPAVSTLPLAFHFPKPFTITNFTMLLYGYLSPKKTGKYTFKLLADDLLLMNFGADNAFDCCSHDATKDNIGEYVAYSVWPGVNKNVTVYLESGIYYPLRLFFNNRDAIAQLDFAYYFNDSPIRQTDFSGMFFSIPDSVKCPANI
# Tests used:
# Assay in all cases: glycan array binding signal (z-score within array); higher = stronger binding
# Settings in all cases: glycan notation: IUPAC condensed, linker removed
# [1] = biological target: Gal(b1-4)GlcNAc(b1-3)Gal(b1-4)GlcNAc(b1-3)Gal(b1-4)GlcNAc(b1-3)Gal(b1-4)GlcNAc(b1-2)Man(a1-3)[Gal(b1-4)GlcNAc(b1-3)Gal(b1-4)GlcNAc(b1-3)Gal(b1-4)GlcNAc(b1-3)Gal(b1-4)GlcNAc(b1-2)Man(a1-6)]Man(b1-4)GlcNAc(b1-4)[Fuc(a1-6)]GlcNAc
# Summary of the method: (§1)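 Glycan array binding is given as a within-array Z-score, which can be read as non-binding when negative. The arrays, 3228 of them, came from the Consortium for Functional Glycomics database and were retained only where the protein sequence was available. Z-scores were averaged across arrays of the same protein sequence at different concentrations or buffers and across linkers.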
# [2] = biological target: Gal(b1-4)GlcNAc(b1-3)Gal(b1-4)GlcNAc(b1-3)Gal(b1-4)GlcNAc(b1-3)Gal(b1-4)GlcNAc(b1-2)[Gal(b1-4)GlcNAc(b1-3)Gal(b1-4)GlcNAc(b1-3)Gal(b1-4)GlcNAc(b1-3)Gal(b1-4)GlcNAc(b1-6)]Man(a1-6)[Gal(b1-4)GlcNAc(b1-3)Gal(b1-4)GlcNAc(b1-3)Gal(b1-4)GlcNAc(b1-3)Gal(b1-4)GlcNAc(b1-2)Man(a1-3)]Man(b1-4)GlcNAc(b1-4)[Fuc(a1-6)]GlcNAc
# Summary of the method: as §1
# [3] = biological target: Gal(b1-4)GlcNAc(b1-3)Gal(b1-4)GlcNAc(b1-3)Gal(b1-4)GlcNAc(b1-3)Gal(b1-4)GlcNAc(b1-3)Gal(b1-4)GlcNAc(b1-2)Man(a1-3)[Gal(b1-4)GlcNAc(b1-3)Gal(b1-4)GlcNAc(b1-3)Gal(b1-4)GlcNAc(b1-3)Gal(b1-4)GlcNAc(b1-3)Gal(b1-4)GlcNAc(b1-2)Man(a1-6)]Man(b1-4)GlcNAc(b1-4)GlcNAc
# Summary of the method: as §1
# [4] = biological target: Gal(b1-4)GlcNAc(b1-3)Gal(b1-4)GlcNAc(b1-3)Gal(b1-4)GlcNAc(b1-3)Gal(b1-4)GlcNAc(b1-3)Gal(b1-4)GlcNAc(b1-2)Man(a1-3)[Gal(b1-4)GlcNAc(b1-3)Gal(b1-4)GlcNAc(b1-3)Gal(b1-4)GlcNAc(b1-3)Gal(b1-4)GlcNAc(b1-3)Gal(b1-4)GlcNAc(b1-2)Man(a1-6)]Man(b1-4)GlcNAc(b1-4)[Fuc(a1-6)]GlcNAc
# Summary of the method: as §1
# [5] = biological target: Gal(b1-4)GlcNAc(b1-3)Gal(b1-4)GlcNAc(b1-3)Gal(b1-4)GlcNAc(b1-3)Gal(b1-4)GlcNAc(b1-3)Gal(b1-4)GlcNAc(b1-2)[Gal(b1-4)GlcNAc(b1-3)Gal(b1-4)GlcNAc(b1-3)Gal(b1-4)GlcNAc(b1-3)Gal(b1-4)GlcNAc(b1-3)Gal(b1-4)GlcNAc(b1-6)]Man(a1-6)[Gal(b1-4)GlcNAc(b1-3)Gal(b1-4)GlcNAc(b1-3)Gal(b1-4)GlcNAc(b1-3)Gal(b1-4)GlcNAc(b1-3)Gal(b1-4)GlcNAc(b1-2)Man(a1-3)]Man(b1-4)GlcNAc(b1-4)[Fuc(a1-6)]GlcNAc
# Summary of the method: as §1
# [6] = biological target: Gal(b1-4)GlcNAc(b1-3)Gal(b1-4)GlcNAc(b1-3)Gal(b1-4)GlcNAc(b1-3)Gal(b1-4)GlcNAc(b1-3)Gal(b1-4)GlcNAc(b1-3)Gal(b1-4)GlcNAc(b1-2)Man(a1-3)[Gal(b1-4)GlcNAc(b1-3)Gal(b1-4)GlcNAc(b1-3)Gal(b1-4)GlcNAc(b1-3)Gal(b1-4)GlcNAc(b1-3)Gal(b1-4)GlcNAc(b1-3)Gal(b1-4)GlcNAc(b1-2)Man(a1-6)]Man(b1-4)GlcNAc(b1-4)GlcNAc
# Summary of the method: as §1
# [7] = biological target: Gal(b1-4)GlcNAc(b1-3)Gal(b1-4)GlcNAc(b1-3)GalNAc
# Summary of the method: as §1
# [8] = biological target: Gal(b1-4)GlcNAc(b1-3)Gal(b1-4)GlcNAc(b1-3)[Gal(b1-4)GlcNAc(b1-3)Gal(b1-4)GlcNAc(b1-6)]GalNAc
# Summary of the method: as §1
# [9] = biological target: Gal(b1-4)GlcNAc(b1-3)Gal(b1-4)GlcNAc(b1-6)[Gal(b1-3)]GalNAc
# Summary of the method: as §1
# [10] = biological target: Gal(b1-4)GlcNAc(b1-3)Gal(b1-4)[Fuc(a1-3)]GlcNAc(b1-3)Gal(b1-4)[Fuc(a1-3)]GlcNAc
# Summary of the method: as §1
# [11] = biological target: Gal(b1-4)GlcNAc(b1-3)GalNAc
# Summary of the method: as §1
# [12] = biological target: Gal(b1-4)GlcNAc(b1-3)[Fuc(a1-3)GlcNAc(b1-6)]Gal(b1-4)Glc
# Summary of the method: as §1
# [13] = biological target: Gal(b1-4)GlcNAc(b1-3)[Gal(b1-4)GlcNAc(b1-6)]Gal(b1-4)GlcNAc
# Summary of the method: as §1
# [14] = biological target: Gal(b1-4)GlcNAc(b1-3)[GlcNAc(b1-6)]Gal(b1-4)GlcNAc
# Summary of the method: as §1
# [15] = biological target: Gal(b1-4)GlcNAc(b1-6)Gal(b1-4)GlcNAc
# Summary of the method: as §1
# [16] = biological target: Gal(b1-4)GlcNAc(b1-6)GalNAc
# Summary of the method: as §1
# [17] = biological target: Gal(b1-4)GlcNAc(b1-6)[Gal(b1-3)]GalNAc
# Summary of the method: as §1
# [18] = biological target: Gal(b1-4)GlcNAc(b1-6)[Gal(b1-4)GlcNAc(b1-3)]GalNAc
# Summary of the method: as §1
# Gal(b1-4)GlcNAc6P = biological target: Gal(b1-4)GlcNAc6P
# Summary of the method: as §1
# Gal(b1-6)Gal = biological target: Gal(b1-6)Gal
# Summary of the method: as §1
# Gal3S(b1-3)GalNAc = biological target: Gal3S(b1-3)GalNAc
# Summary of the method: as §1
# Gal3S(b1-3)GlcNAc = biological target: Gal3S(b1-3)GlcNAc
# Summary of the method: as §1
# [19] = biological target: Gal3S(b1-3)[Fuc(a1-4)]GlcNAc
# Summary of the method: as §1
# Gal3S(b1-4)Glc = biological target: Gal3S(b1-4)Glc
# Summary of the method: as §1
# Gal3S(b1-4)Glc6S = biological target: Gal3S(b1-4)Glc6S
# Summary of the method: as §1
# Gal3S(b1-4)GlcNAc = biological target: Gal3S(b1-4)GlcNAc
# Summary of the method: as §1
# [20] = biological target: Gal3S(b1-4)[Fuc(a1-3)]Glc6S
# Summary of the method: as §1
# [21] = biological target: Gal3S(b1-4)[Fuc(a1-3)]GlcNAc
# Summary of the method: as §1
# [22] = biological target: Gal3S(b1-4)[Fuc(a1-3)]GlcNAc6S
# Summary of the method: as §1
# Gal3S4S(b1-4)GlcNAc = biological target: Gal3S4S(b1-4)GlcNAc
# Summary of the method: as §1
# Gal3S6S(b1-4)GlcNAc = biological target: Gal3S6S(b1-4)GlcNAc
# Summary of the method: as §1
# Gal3S6S(b1-4)GlcNAc6S = biological target: Gal3S6S(b1-4)GlcNAc6S
# Summary of the method: as §1
# Gal4S(b1-4)GlcNAc = biological target: Gal4S(b1-4)GlcNAc
# Summary of the method: as §1
# Gal4S6S(b1-4)GlcNAc = biological target: Gal4S6S(b1-4)GlcNAc
# Summary of the method: as §1
# Gal6P(b1-4)GlcNAc = biological target: Gal6P(b1-4)GlcNAc
# Summary of the method: as §1
# Gal6S(b1-3)GlcNAc = biological target: Gal6S(b1-3)GlcNAc
# Summary of the method: as §1
# Gal6S(b1-3)GlcNAc6S = biological target: Gal6S(b1-3)GlcNAc6S
# Summary of the method: as §1
# Gal6S(b1-4)Glc = biological target: Gal6S(b1-4)Glc
# Summary of the method: as §1
binder,measurement,setting,value
B1,glycan array binding signal (z-score),[1],0.006
same,glycan array binding signal (z-score),[2],-0.079
same,glycan array binding signal (z-score),[3],-0.037
same,glycan array binding signal (z-score),[4],-0.226
same,glycan array binding signal (z-score),[5],0.054
same,glycan array binding signal (z-score),[6],-0.26
same,glycan array binding signal (z-score),[7],0.131
same,glycan array binding signal (z-score),[8],0.394
same,glycan array binding signal (z-score),[9],0.298
same,glycan array binding signal (z-score),[10],-0.02
same,glycan array binding signal (z-score),[11],-0.314
same,glycan array binding signal (z-score),[12],-0.181
same,glycan array binding signal (z-score),[13],0.057
same,glycan array binding signal (z-score),[14],-0.143
same,glycan array binding signal (z-score),[15],-0.277
same,glycan array binding signal (z-score),[16],-0.162
same,glycan array binding signal (z-score),[17],0.002
same,glycan array binding signal (z-score),[18],0.086
same,glycan array binding signal (z-score),Gal(b1-4)GlcNAc6P,0.565
same,glycan array binding signal (z-score),Gal(b1-6)Gal,1.22
same,glycan array binding signal (z-score),Gal3S(b1-3)GalNAc,-0.286
same,glycan array binding signal (z-score),Gal3S(b1-3)GlcNAc,-0.35
same,glycan array binding signal (z-score),[19],0.4
same,glycan array binding signal (z-score),Gal3S(b1-4)Glc,-0.425
same,glycan array binding signal (z-score),Gal3S(b1-4)Glc6S,-0.348
same,glycan array binding signal (z-score),Gal3S(b1-4)GlcNAc,-0.428
same,glycan array binding signal (z-score),[20],0.482
same,glycan array binding signal (z-score),[21],-0.06
same,glycan array binding signal (z-score),[22],0.237
same,glycan array binding signal (z-score),Gal3S4S(b1-4)GlcNAc,-0.365
same,glycan array binding signal (z-score),Gal3S6S(b1-4)GlcNAc,-0.104
same,glycan array binding signal (z-score),Gal3S6S(b1-4)GlcNAc6S,1.36
same,glycan array binding signal (z-score),Gal4S(b1-4)GlcNAc,-0.105
same,glycan array binding signal (z-score),Gal4S6S(b1-4)GlcNAc,-0.32
same,glycan array binding signal (z-score),Gal6P(b1-4)GlcNAc,-0.368
same,glycan array binding signal (z-score),Gal6S(b1-3)GlcNAc,-0.149
same,glycan array binding signal (z-score),Gal6S(b1-3)GlcNAc6S,0.743
same,glycan array binding signal (z-score),Gal6S(b1-4)Glc,-0.014
